Assay results: PubChem BioAssay AID1347071 (National Center for Advancing Translational Sciences (NCATS), 2019)
Out of some 410,000 compounds screened, about 260 (0.063%) were called active. The inconclusive results got no clear call from the source; some entries with a clear call stand among them for comparison. Calls come from the whole dose curve; as a rule, active = well fitted activation curve with a large enough effect; inconclusive = small, poorly fitted or top-dose-only effect; inactive = no such curve, though single readings can be large or run the other way. Potencies of inconclusive entries are left out as doubtful fits.

Assay: qHTS for compounds that reverse cellular toxicity of Amyloid beta (A-beta) peptide in yeast: Primary Screen; note: nearly all actives have a fitted effect of over 55% in size
Settings: yeast expressing A-beta42, growth rescue, OD600, 48 h; growth rescue: at 46.1 µM (top of the series), 0% DMSO, 100% iron-clioquinol control
In short: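 Growth rescue measured by 600 nm absorbance after 48 h yeast culture at 30 C with compound. Values normalized between DMSO and an equimolar ferric chloride plus clioquinol control.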
Potency is the fitted concentration of half-maximal effect; tags give direction and shape of the fitted curve.

Structure (SMILES)	Potency
O=C(NC(=S)NC(CO)Cc1ccccc1)c1ccc(F)cc1 (stereo not drawn)	inconclusive [activator, single point]
CC1=C(C(=O)Nc2cccnc2)C(c2ccc(Cl)cc2)n2nc(SCc3ccccc3)nc2N1 (stereo not drawn)	inactive
O=C(Nc1ccc(Cl)cc1)c1ccc(OCC2CCCO2)cc1 (stereo not drawn)	inactive
CCOc1ccc(-c2noc(CSc3nnc(Cc4ccccc4)n3-c3ccc(F)cc3)n2)cc1	inactive
S=c1[nH]nc(COc2ccc(Cl)cc2)n1-c1ccc(Cl)cc1	inconclusive [activator, single point]
O=C(Cn1c(-c2cccs2)cc2cc(F)ccc21)N1CCCCC1	inconclusive [activator, single point]
COc1ccc(Cl)cc1NC(=O)CC(C)c1ccccc1 (stereo not drawn)	inconclusive [activator, partial curve, poor fit]
C/C(=N\NC(=S)Nc1cc(S(=O)(=O)N2CCOCC2)ccc1Cl)c1ccc(N2CCOCC2)cc1	inconclusive [activator, partial curve, poor fit]
Cc1[nH]c2ccccc2c1/C=N/Nc1ccccc1[N+](=O)[O-]	inactive
Cc1ccccc1NC(=O)Cc1nnc(NC(=O)Nc2ccccc2F)s1	inconclusive [activator, single point]
CCc1nnc(N/N=C/c2cc(C)c(C)cc2C)n1N	inconclusive [activator, full curve]
O=C(CCC1N=C2c3ccccc3N=C(SCc3ccc(Cl)cc3)N2C1=O)NC1CCCCC1 (stereo not drawn)	inactive
CCOC(=O)C1=C(C)Nc2sc(C(=O)c3ccc(C)cc3)c(N)c2C1c1ccc(C(=O)OC)cc1 (stereo not drawn)	inactive
COc1ccc(C(O)c2ncc(-c3ccccc3OC)[nH]2)cc1F (stereo not drawn)	inconclusive [activator, partial curve, poor fit]
CCOCc1c(C(=O)N2CCN(Cc3ccc(Br)s3)CC2)oc2ccccc12	inconclusive [activator, single point]
Cc1ccc(SCC(=O)Nc2cccc(C)c2)cc1	inconclusive [activator, single point]
O=C(NC1CCCCC1)N1CCCCCCC1	inconclusive [activator, partial curve]
CC(C)(C)n1nnnc1C(c1ccc(Cl)cc1)N1CCSCC1 (stereo not drawn)	inconclusive [activator, full curve]
Cc1cc(C)n(CCc2nc(-c3ccc(F)cc3)cs2)n1	inconclusive [activator, single point]
CC(C)(C)OC(=O)NCCCCCc1nnc(SCC(=O)Nc2cccc(Cl)c2)o1	inconclusive [activator, single point]
COCCNC(=O)C(c1ccc(OC)cc1)N(C(=O)Cn1nnc2ccccc21)c1cccnc1 (stereo not drawn)	inconclusive [activator, single point]
COc1ccc(NC(=O)/C(C#N)=C/c2ncc([N+](=O)[O-])n2C)c(OC)c1	inconclusive [activator, full curve, poor fit]
C=Cc1ccc(Cn2c(C)c(C(=O)NCc3ccc(C#N)cc3)sc2=O)cc1	inconclusive [activator, single point]
Cc1ccccc1S(=O)(=O)NC(=O)C1(C)CCN1C(=O)c1ccccc1CCc1ccccc1 (stereo not drawn)	inactive
Cc1nc(=S)c2ccccc2[nH]1	inactive

Structure (SMILES)	Potency
CC(C)(C)c1cc(CCC(=O)NCc2ccncc2)cc(C(C)(C)C)c1O	inconclusive [activator, partial curve, poor fit]
Cc1cc(C)c(NC(=O)c2ccc(CNS(=O)(=O)c3cc(C(F)(F)F)ccc3Cl)cc2)c(C)c1	inconclusive [activator, full curve]
O=C(O)Cc1csc(-c2cccc(Oc3ccccc3)c2)n1	inconclusive [activator, single point]
COc1ccc(-c2cn[nH]c2-c2ccc(OC)cc2O)cc1	inconclusive [activator, single point]
COc1ccc(Nc2oc(/C=C/c3ccc(OC)c(OC)c3)nc2C#N)cc1	inactive
Nc1nonc1-n1nnc(C(=O)N/N=C/c2ccc(Cl)cc2Cl)c1CN1CCOCC1	inconclusive [activator, single point]
Cc1ccc(Cl)cc1NC(=O)C1CCN(c2nc3ccccc3n3cccc23)CC1	inactive
O=C(Nc1ccc2c(c1)OCO2)C1CCCN(S(=O)(=O)c2cccs2)C1 (stereo not drawn)	inactive
CCc1ccc(-n2c(=O)c3cccnc3n2CC(=O)Nc2ccccc2C(F)(F)F)cc1	inactive
COC1(OC)N=C(NC(=O)Nc2ccccc2)C2(C#N)C(c3ccccc3)C12C#N (stereo not drawn)	inconclusive [activator, single point]
Nc1n[nH]c(-c2ccccc2)c1-c1ccccc1	inconclusive [activator, full curve, poor fit]
Cc1nn(-c2ccccc2)c(OC(=O)C(C)(C)C)c1Sc1ccccc1	inactive
O=C(Nc1ccc(S(=O)(=O)N2CCOCC2)cc1)c1c(F)cccc1F	inconclusive [activator, partial curve, poor fit]
Cc1ccc(OCC(=O)NNC(=O)c2cc(C)[nH]n2)cc1	inactive
COc1ccc(S(=O)(=O)N2CCCC2C(=O)Nc2nnc(-c3cccnc3)s2)cc1 (stereo not drawn)	inactive
O=C1CC(N(CCc2ccccc2)C(=S)Nc2cc(Cl)ccc2Cl)C(=O)N1c1c(Cl)cccc1Cl (stereo not drawn)	inconclusive [activator, full curve, poor fit]
S=C(NCCc1ccc(Cl)cc1)NC1CC1	inconclusive [activator, partial curve, poor fit]
COc1cccc(NC(=O)c2ccc3nc(Cc4ccccc4)oc3c2)c1	inactive
Cc1cccc(NC(=S)NNc2cccc(Cl)c2)c1	active: 12.6 µM
O=C(CCc1ccccc1)NC(c1cccs1)c1cc(Cl)c2cccnc2c1O (stereo not drawn)	inconclusive [activator, single point]
CCOc1c(CNc2nnnn2C)cccc1OC	inactive
CCc1cccc(NC(=O)COC(=O)C2CCN(c3ccc(C(F)(F)F)cn3)CC2)c1	inconclusive [activator, single point]
C=C(C)CSc1nc2c(cc1C#N)CCC2	inconclusive [activator, partial curve, poor fit]
O=C(Nc1nc(COc2ccccc2)cs1)c1ccccc1F	inactive
CCN(CC(=O)Nc1cc(Cl)ccc1C)C(=O)CC1CCCC1	inconclusive [activator, partial curve, poor fit]

Structure (SMILES)	Potency
Clc1ccc(-c2nc3cnccn3c2NC2CCCC2)cc1	inactive
NNc1ccc(S(=O)(=O)N2CCCCC2)cn1	inconclusive [activator, full curve]
CCCOc1ccc(-c2nc(N3CCC(C)CC3)c3ccccc3n2)cc1	inactive
CCCn1c2ccccc2c2cnn(CC(=O)N(Cc3ccccc3)C(C)C)c(=O)c21	inactive
Cc1cccc(N2CCN(C(=O)C3CCN(S(=O)(=O)c4c(C)noc4C)CC3)CC2)c1C	inconclusive [activator, partial curve]
Cc1ccc(C)c(N2CCN(C(=O)c3cc(S(=O)(=O)N4CCC(C)CC4)cn3C)CC2)c1	inactive
O=C(CCC(=O)c1cccs1)OCc1ccc([N+](=O)[O-])cc1	inactive
Cc1cccc(OCCC(=O)Nc2ccc(Cl)cc2F)c1	inconclusive [activator, partial curve, poor fit]
N#Cc1ncc(C(F)(F)F)cc1Sc1ccc(N)cc1	inconclusive [activator, partial curve, poor fit]
O=C1NC(=O)c2cc(NC(=O)C3CCCO3)ccc21 (stereo not drawn)	inactive
CCCCCC(=O)NNC(=S)NC(=O)c1ccc([N+](=O)[O-])cc1	inconclusive [activator, single point]
O=C(Nc1cccc(Cl)c1)OCCOc1ccccc1	inconclusive [activator, partial curve, poor fit]
COc1ccc(CCNC(=O)c2ccc(Cn3c(=O)c4ccccc4n(Cc4ccc(C)cc4)c3=O)cc2)cc1OC	inactive
C=CCNC(=S)N/N=C/c1cccc([N+](=O)[O-])c1	inconclusive [activator, partial curve, poor fit]
CC(=O)c1sc(Nc2cccc3ccccc23)nc1C	inconclusive [activator, single point]
CC(C)c1ccc(NC(=O)c2cnc3sc(N4CCCC4)nn3c2=O)cc1	inactive
Cc1cccc(NC(=O)CN(CC2CCCO2)C(=O)c2cc(S(=O)(=O)N(C)C)ccc2F)c1C (stereo not drawn)	inactive
COc1cc(/C=N/NC(=O)c2[nH]nc3c2CCc2ccccc2-3)ccc1O	inactive
Cc1cc(C)c(S(=O)(=O)n2ccc3ccccc32)c(C)c1	inconclusive [activator, partial curve, poor fit]
Cc1ccc(NC(=S)Nc2ccccn2)c(C)c1	inconclusive [activator, partial curve, poor fit]
CN1CCN(c2cc(-c3ccccc3)nc3cc(-c4ccc(F)cc4)nn23)CC1	inactive
CC(C)c1ccc(NC(=O)N2CCOCC2)cc1	inactive
CCOc1ccc(S(=O)(=O)Nc2cc(Cl)ccc2O)cc1	inconclusive [activator, partial curve]
